# Data reported in the antibiotic and cytotoxicity screens of Wong et al. (2023).
# The other results are listed elsewhere or left out.
# Columns and labels:
# HSkMC = human skeletal muscle cells; assay: cytotoxicity call (relative viability < 0.9); settings: 10 µM
# HepG2 = assay: cytotoxicity call (relative viability < 0.9); settings: 10 µM
# S. aureus RN4220 = assay: growth inhibition call (relative growth <= 0.2); settings: 50 µM
Structure (SMILES),cytotoxicity call (HSkMC),cytotoxicity call (HepG2),growth inhibition call (S. aureus RN4220)
Cc1noc(C)c1NC(=O)Nc1ccc2c(c1)C(=O)N([C@H](C)CO)C[C@@H](C)[C@H](CN(C)Cc1ccncc1)OCCCC[C@@H](C)O2,inactive,inactive,inactive
CCCC#Cc1ccc2c(c1)O[C@@H](CN(C)Cc1ccc3c(c1)OCO3)[C@@H](C)CN([C@H](C)CO)S2(=O)=O,inactive,inactive,inactive
Cc1ccc(C(=O)Nc2ccc(Oc3cc4cnn(C)c4cc3-c3cn[nH]c3)c(F)c2)c(=O)n1-c1ccc(F)cc1,active,active,inactive
NC[C@H](c1cccc(F)c1)N1CCCCC1,inactive,inactive,inactive
C[C@H]1CN([C@@H](C)CO)S(=O)(=O)c2ccc(-c3cncnc3)cc2O[C@@H]1CN(C)C(=O)Cc1ccncc1,inactive,inactive,inactive
CCOC(=O)C1=C(C)N[C@@]2(O)C[C@@H]1[C@H]1CO[C@@H]2O1,inactive,inactive,inactive
O=C(C[C@@H]1C[C@H]2c3cc(NC(=O)c4ccc5c(c4)OCO5)ccc3O[C@H]2[C@H](CO)O1)NCCc1ccccc1,inactive,inactive,inactive
C[C@H](CO)N1C[C@H](C)[C@H](CN(C)S(=O)(=O)c2cn(C)cn2)Oc2ncc(C3=CCCCC3)cc2C1=O,inactive,inactive,inactive
C[C@@H]1CN([C@@H](C)CO)C(=O)CCCn2nncc2CO[C@@H]1CN(C)C(=O)Nc1ccc2c(c1)OCCO2,inactive,inactive,inactive
COCC(=O)N1C[C@@H](C)[C@@H](OC)CN(C)C(=O)c2ccc(NC(=O)Nc3cccc(F)c3)cc2OC[C@H]1C,inactive,inactive,inactive
CC1=C(/C=C/C(C)=C/C=C/C(C)=C/C=C/C=C(C)/C=C/C=C(C)/C=C/[C@@]23O[C@]2(C)C[C@@H](O)CC3(C)C)C(C)(C)C[C@H](O)C1,inactive,inactive,inactive
C[C@@H]1CCCCO[C@@H](CN(C)S(=O)(=O)c2ccc(Cl)cc2)[C@@H](C)CN([C@H](C)CO)C(=O)c2cc(NC(=O)C3CCCCC3)ccc2O1,inactive,inactive,inactive
COc1ccc([C@H]2CC([C@@H]3C(=O)N[C@H]4CC[C@H](Br)C[C@@H]4[C@H]3c3ccccc3)=NN2C(=O)c2ccccc2)cc1,inactive,inactive,inactive
C[C@H]1CN([C@@H](C)CO)C(=O)c2cccc(NS(=O)(=O)c3ccc(F)cc3)c2O[C@H]1CN(C)Cc1ccncc1,inactive,inactive,inactive
COc1ccc(S(=O)(=O)Nc2ccc3c(c2)C(=O)N([C@H](C)CO)C[C@H](C)[C@H](CN(C)C(=O)Nc2ccc4c(c2)OCO4)OCCCC[C@@H](C)O3)cc1,inactive,inactive,inactive
C[C@@H]1CN([C@@H](C)CO)C(=O)Cc2cc(NC(=O)Cc3ccccc3)ccc2O[C@H]1CN(C)S(=O)(=O)c1cccs1,inactive,inactive,inactive
COc1ccc(NC(=O)Nc2ccc3c(c2)C(=O)N([C@@H](C)CO)C[C@@H](C)[C@H](CN(C)C(=O)Nc2cccc4ccccc24)OCCCC[C@H](C)O3)cc1,inactive,inactive,inactive
C[C@H]1CN([C@@H](C)CO)C(=O)c2cccc(NC(=O)C3CCOCC3)c2O[C@H]1CN(C)S(=O)(=O)c1ccc(Cl)cc1,inactive,inactive,inactive
CN1C(=O)c2cc(NC(=O)Cc3cccs3)ccc2OC[C@@H]2O[C@H](CC(=O)NCc3ccc(-c4ccccc4)cc3)CC[C@@H]21,inactive,active,inactive
C[C@@H]1CN([C@H](C)CO)C(=O)Cc2cc(NC(=O)Nc3ccccc3)ccc2O[C@@H]1CN(C)Cc1ccc(-c2ccccc2)cc1,active,active,inactive
C[C@H](CO)N1C[C@H](C)[C@@H](CN(C)Cc2ccccc2)Oc2ccc(NC(=O)CCN3CCOCC3)cc2C1=O,inactive,inactive,inactive
N=c1cc(N2CCCCC2)nc(N)n1OS(=O)(=O)O,inactive,inactive,inactive
O=C(NCO)c1cccnc1,inactive,inactive,inactive
Cc1noc(C)c1NC(=O)Nc1ccc2c(c1)C(=O)N([C@@H](C)CO)C[C@@H](C)[C@H](CN(C)S(=O)(=O)c1cn(C)cn1)O2,inactive,inactive,inactive
C[C@@H]1CN([C@@H](C)CO)C(=O)c2cccc(NC(=O)Nc3ccccc3)c2O[C@H]1CN(C)C(=O)Nc1ccc(C(F)(F)F)cc1,inactive,inactive,inactive
